The chains are these.
B1: LINE1-mini (parent)
chain: GGCAGAGCUCAACACAGCGUGGCAAAGUGGCUGUGGCUAGACUGCC

Among the data in the RNAGym collection of RNA variant scans (doi:10.7554/elife.90254) are self-cleavage values, retold here.

The source gives no read counts; variants with many changes may rest on few reads.

In this data set the parent is B1. Nature of the data set: self-cleavage, relative activity (ratio to wild type); higher = more cleavage; in vitro, sequencing; the parent is a self-cleaving ribozyme.
Consider GGCAGAUCUCAACACAGCGUGGCAAAGUAGCUGUGGCUGGACUGCC [G7U G29A A39G], for which the self-cleavage was determined as 0.03.

For GGCAGAUCCCAACACAGCGUGGCUAAGUGGCUCUGGCUAGACUGCC [G7U U9C A24U G33C], the self-cleavage is 0.04.

Consider GGCAGAUCGCAACACAGCGUGGCAAAGUGGCUGUGGUUAGACUGCC [G7U U9G C37U], for which the self-cleavage amounted to 0.03.

Consider GGCAGAUCUCAACACAGCGUGGCAAAGCGGCUUUGGCUAGACUGCC [G7U U28C G33U], for which the self-cleavage was determined as 0.32.

Take GGCAGAUCACAACACAGCGUGGUAAAGUGGCUGUGUCUAGACUGCC [G7U U9A C23U G36U]: the self-cleavage was found to be 0.1.

GGCAGAUCUCAACACAGCGGGGCAAAGUGGCUGUGGUUAGACUGCC [G7U U20G C37U]: the self-cleavage was determined as 0.

Regarding GGCAGAUCUCAACACAGCGUGGCAAAAUGGCUGUGGCUUGACUGCC [G7U G27A A39U], the self-cleavage came to 0.09.

For GGCAGAUCUCAACACAGCGUUGCAAAGUGGCUGUGGCUAGACUGAC [G7U G21U C45A], the self-cleavage was 0.15.

On to GGCAGAUCUCAACACAGCGUGCCAAAGUGGCUCUGGCUAGACUGCC [G7U G22C G33C], for which the self-cleavage came out at 0.02.

Regarding GGCAGAUCUCAACACAGCGUGGCAAAGUCUCUGUGGCUAGACUGCC [G7U G29C G30U], the self-cleavage came to 0.06.

For GGCAGAUCUCAACACAGCGUUGCAAAGUGGCUGUGGCGAAACUGCC [G7U G21U U38G G40A], the self-cleavage was found to be 0.

In the case of GGCAGAUCUCAACACAGCGUGACAAAGUGGCAGUGGCUAGACUGCC [G7U G22A U32A], the self-cleavage amounted to 0.04.

As to GGCAGAUCACAACACAGCGUGGCAAAGUGGCUGUGGCUCGGCUGCC [G7U U9A A39C A41G], the self-cleavage amounted to 0.08.

GGCAGAUCUCAACACAGCGUCGCAAAGUGGGUGUGACUAGACUGCC [G7U G21C C31G G36A]: the self-cleavage worked out at 0.2.

Turning to GGCAGAUCUCAACACAGCGGGGCAAAGUGGCUGUGGCUAGAUUGCC [G7U U20G C42U], the self-cleavage was 0.02.

Regarding GGCAGAUCUCAACACAGCAUGGCAACGUGGCUGUGGCUAGACUGCC [G7U G19A A26C], the self-cleavage is 0.

Take GGCAGAUCUCAACACAGCGUUGGAAAGUGGCAGUGGCUAGACUGUC [G7U G21U C23G U32A C45U]: the self-cleavage turned out to be 0.09.

In the case of GGCAGAUCUCAACACAGCGUGGCAAAGUGGCUAUGGAUAGACUGCC [G7U G33A C37A], the self-cleavage was found to be 0.07.

Consider GGCAGAUCUCAACACAGCGUGGCAAAUUGGCUCUGGCUAAACUGCC [G7U G27U G33C G40A], for which the self-cleavage is 0.34.

In the case of GGCAGAUCUCAACACAGCGUGGCAAAUUGCCUGUGUCUAGACUGCC [G7U G27U G30C G36U], the self-cleavage came to 0.14.

Turning to GGCAGAUCUCAACACAGCGUGGCAAAGCGGCUGUGGCUACACUGCC [G7U U28C G40C], the self-cleavage was 0.31.

For the variant GGCAGAUCUCAACACAGCUUAGCAAUGUGGCUGUGGCUGGACUGCC [G7U G19U G21A A26U A39G], the self-cleavage worked out at 0.03.

Regarding GGCAGAUCACAACACAGCGUGGCAACGUGGCUAUGGCUAGACUGCC [G7U U9A A26C G33A], the self-cleavage is 0.05.

In the case of GGCAGAUCUCAACACAGCGUGGCAAAAUGGGUGUGGCUAGACUGCC [G7U G27A C31G], the self-cleavage stood at 0.02.

GGCAGAUCUCAACACAGCGGGCCAAAGUGGCUGUGGCAAGACUGCC [G7U U20G G22C U38A]: the self-cleavage was determined as 0.02.

For GGCAGAUCGAAACGCAGCGGGGCAAAGUGGCUGUGGCUAGACUGCC [G7U U9G C10A A14G U20G], the self-cleavage came out at 0.02.

As to GGCAGAUCCCAACACAGCGUCGCAAAGGGGCUGUGGCUAGACUGCC [G7U U9C G21C U28G], the self-cleavage was 0.01.

On to GGCAGAUCUCAACACAGCGUGACAAAGUGGCUGUUGCUACACUGCC [G7U G22A G35U G40C], for which the self-cleavage came to 0.7.

Regarding GGCAGAUCUCAACACAGCGCGGCAAAGUGGCUGUGGCUGGACUGCC [G7U U20C A39G], the self-cleavage was found to be 0.03.

In the case of GGCAGAUCACAACACAGCUUGGCAAAGUGACUGUGGCUAGACUGCC [G7U U9A G19U G30A], the self-cleavage was 0.17.

As to GGCAGAUCUCAACACAGCUUGGCAAAGUAGCUGUGGCUAGACUUCC [G7U G19U G29A G44U], the self-cleavage was determined as 0.21.

For the variant GGCAGAUCUCAACACAGCGCUGCAAAGUGGCUGUGGCUAGACUGCC [G7U U20C G21U], the self-cleavage came to 0.23.

Turning to GGCAGAUCUCAACACAGCGUAGCAAAGUGGCUGGGGAUAGACUGCU [G7U G21A U34G C37A C46U], the self-cleavage came to 0.08.

As to GGCAGAUCUCAACACAGCGUGGCAAACUGGCUGUGGCUAGACCGCC [G7U G27C U43C], the self-cleavage came to 0.02.

GGCAGAUCUCAACACAGCUUGGCAAAGUGGCUGUGGCAAGUCUGCC [G7U G19U U38A A41U]: the self-cleavage came to 0.12.

Take GGCAGAUCUCAACACAGCUUGGAAAAGUGGCUGUGGUUAGACUGCC [G7U G19U C23A C37U]: the self-cleavage is 0.02.

In the case of GGCAGAUCUCAACACAUCGUGGCAUAGUGGCUGUUGCUAGACUGCC [G7U G17U A25U G35U], the self-cleavage came to 0.02.

Take GGCAGAUCUCAACACAGCGUGGCAAAGUGGCUGUGGCUAUAAUGCC [G7U G40U C42A]: the self-cleavage was 0.2.

Take GGCAGAUCUCAACACAGCGUGGCAAAAUGGCUGUGGCUAGACUGGC [G7U G27A C45G]: the self-cleavage is 0.39.

On to GGCAGAUCUCAACACAGCUUGGCAAAAUGGCUGUGGCUAGACUGCC [G7U G19U G27A], for which the self-cleavage is 0.03.

Consider GGCAGAUCUCAACACAGCCUGGCAAAGUGGCUGUAGCUAGUCUGCC [G7U G19C G35A A41U], for which the self-cleavage is 0.13.

As to GGCAGAUCUCAACACAGCGGGGCAAAGUGACUGUGGAUUGACUGUC [G7U U20G G30A C37A A39U C45U], the self-cleavage came out at 0.08.

Turning to GGCAGAUCUCAACACAGCGUGGCAAAGUGGCUGUGGCUAGACUUCG [G7U G44U C46G], the self-cleavage came out at 0.04.

As to GGCAGAUCUCAACACAGCGUGCCAAAGUGGCUGUGGCUAGAUUGCC [G7U G22C C42U], the self-cleavage stood at 0.12.

Turning to GGCAGAUCGCAACACCGCGUGGCAAAGUGGCUGUGGCUUGACUGCC [G7U U9G A16C A39U], the self-cleavage stood at 0.08.

Turning to GGCAGAUCUCAACACAGCUUGGCAAAGUGACUGUGGCUAGACAGCC [G7U G19U G30A U43A], the self-cleavage is 0.59.

As to GGCAGAUCUCAACACAGCGUGGCAAAUUGGCUGUUGCUAGACUGCC [G7U G27U G35U], the self-cleavage amounted to 0.08.

In the case of GGCAGAUCUCAACACAGCGAGGCAAAGUGGCUGUGCCUAGACUGCC [G7U U20A G36C], the self-cleavage was 0.13.

Turning to GGCAGAUCUCAACACAGCGAGGCAAAGUGGCUGUGUCUAGACUGCC [G7U U20A G36U], the self-cleavage was found to be 0.1.

GGCAGAUCUCAACACAGCGUGGCAAACUGGCUGUCGCUAGACUGCC [G7U G27C G35C]: the self-cleavage came out at 0.34.

As for GGCAGAUCCCAACACAGCGUGGAAAAGUGGCUGUGGCUAGACUGCC [G7U U9C C23A], the self-cleavage came to 0.02.

For GGCAGAUCUCAACACAGCGUGGCAAAUUGGCUGUGGCUAGACUUCC [G7U G27U G44U], the self-cleavage turned out to be 0.04.

As to GGCAGAUCUCAACACAGCGUAGCAAAGUGGCUUUGACUAGACUGCC [G7U G21A G33U G36A], the self-cleavage was 0.63.

As for GGCAGAUCUCAACACAGCGGGGCGAAGUGGCUGUGGGUAGACUGCC [G7U U20G A24G C37G], the self-cleavage is 0.01.

As to GGCAGAUCUCAACACAGCGUGACAAAGUGGCUGUGGCUAUACUGCC [G7U G22A G40U], the self-cleavage turned out to be 0.18.

In the case of GGCAGAUCUCAACACAGCGUGACAAAGUGGCUGUGGCUACACUGCC [G7U G22A G40C], the self-cleavage was 0.25.
